Results are given in words; binding and its absence hold for the method and conditions named. In cells and extracts the contact can be indirect. Some results given as binding are weak or reduced against the parent protein; the word gives no strength. Where a sequence is shown, tags or fusion partners need not be part of it.
T1: IMPβ1 fused to Luc^N (Arabidopsis) (UniProt Q9FJD4)
T1 sequence: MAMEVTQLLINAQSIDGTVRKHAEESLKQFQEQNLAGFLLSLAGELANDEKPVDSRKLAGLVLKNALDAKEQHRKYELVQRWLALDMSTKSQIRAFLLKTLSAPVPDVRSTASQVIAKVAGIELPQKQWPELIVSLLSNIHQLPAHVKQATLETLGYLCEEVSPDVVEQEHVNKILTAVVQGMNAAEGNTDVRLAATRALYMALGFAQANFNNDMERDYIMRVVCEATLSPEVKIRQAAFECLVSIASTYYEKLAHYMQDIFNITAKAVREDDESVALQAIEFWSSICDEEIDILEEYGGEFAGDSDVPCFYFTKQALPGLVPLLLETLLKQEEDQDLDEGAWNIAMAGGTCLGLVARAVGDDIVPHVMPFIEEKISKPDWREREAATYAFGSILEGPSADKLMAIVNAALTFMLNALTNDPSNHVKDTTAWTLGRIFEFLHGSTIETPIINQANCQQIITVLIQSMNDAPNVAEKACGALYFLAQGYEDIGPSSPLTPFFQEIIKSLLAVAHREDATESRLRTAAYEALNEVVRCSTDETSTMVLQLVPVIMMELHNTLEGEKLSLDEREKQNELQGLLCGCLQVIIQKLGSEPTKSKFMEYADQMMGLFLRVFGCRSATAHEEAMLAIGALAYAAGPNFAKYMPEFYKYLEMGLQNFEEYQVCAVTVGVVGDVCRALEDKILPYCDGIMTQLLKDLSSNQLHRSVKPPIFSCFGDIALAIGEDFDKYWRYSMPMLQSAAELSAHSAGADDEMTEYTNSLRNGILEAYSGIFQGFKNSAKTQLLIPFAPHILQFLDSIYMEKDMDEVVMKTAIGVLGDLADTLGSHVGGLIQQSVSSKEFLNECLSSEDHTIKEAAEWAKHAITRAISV

T2: IMPβ1:YFP^N fusion protein (Arabidopsis) (UniProt Q9FJD4)
T2 sequence: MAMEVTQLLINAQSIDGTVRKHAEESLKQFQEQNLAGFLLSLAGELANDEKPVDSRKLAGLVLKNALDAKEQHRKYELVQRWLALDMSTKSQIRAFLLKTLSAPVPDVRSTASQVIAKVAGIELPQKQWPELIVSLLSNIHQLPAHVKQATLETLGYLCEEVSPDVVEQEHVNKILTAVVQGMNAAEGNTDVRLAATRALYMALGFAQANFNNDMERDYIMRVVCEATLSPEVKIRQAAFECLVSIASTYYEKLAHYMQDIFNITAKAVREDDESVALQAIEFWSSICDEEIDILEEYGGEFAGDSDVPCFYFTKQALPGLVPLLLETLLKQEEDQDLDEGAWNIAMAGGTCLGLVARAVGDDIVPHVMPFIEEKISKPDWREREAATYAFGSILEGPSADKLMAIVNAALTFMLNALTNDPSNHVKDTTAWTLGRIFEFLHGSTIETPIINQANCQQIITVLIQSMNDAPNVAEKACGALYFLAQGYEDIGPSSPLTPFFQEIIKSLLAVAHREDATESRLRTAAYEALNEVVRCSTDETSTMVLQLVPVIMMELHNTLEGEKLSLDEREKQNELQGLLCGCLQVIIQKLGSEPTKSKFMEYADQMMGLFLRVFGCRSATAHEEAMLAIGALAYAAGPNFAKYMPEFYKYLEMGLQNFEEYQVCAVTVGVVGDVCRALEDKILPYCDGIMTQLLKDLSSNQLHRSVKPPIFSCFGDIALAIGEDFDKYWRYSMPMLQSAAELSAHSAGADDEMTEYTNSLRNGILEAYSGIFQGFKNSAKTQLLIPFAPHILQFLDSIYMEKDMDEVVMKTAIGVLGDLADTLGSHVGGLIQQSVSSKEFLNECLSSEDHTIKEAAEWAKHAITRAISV


Key:
[1] = target: T1, IMPβ1 fused to Luc^N (Arabidopsis); assay: split reporter; split luciferase (luciferin living fluorescence imaging, LLFI) on N. benthamiana leaves; Luc^N and Luc^C fusions
[2] = target: T2, IMPβ1:YFP^N fusion protein (Arabidopsis); assay: split reporter; YFP BiFC in Nicotiana benthamiana leaves, confocal laser-scanning microscopy; IMPβ1 fused to YFP^N, EIN2C or EIN2N fused to YFP^C

Binder | binding [1] | binding [2]
EIN2C fused to Luc^C (domain or fragment, UniProt Q9S814 454-1294) LWLAATPLKSASNRAEAQIWNMDAQNALSYPSVQEEEIERTETRRNEDESIVRLESRVKDQLDTTSVTSSVYDLPENILMTDQEIRSSPPEERELDVKYSTSQVSSLKEDSDVKEQSVLQSTVVNEVSDKDLIVETKMAKIEPMSPVEKIVSMENNSKFIEKDVEGVSWETEEATKAAPTSNFTVGSDGPPSFRSLSGEGGSGTGSLSRLQGLGRAARRHLSAILDEFWGHLYDFHGQLVAEARAKKLDQLFGTDQKSASSMKADSFGKDISSGYCMSPTAKGMDSQMTSSLYDSLKQQRTPGSIDSLYGLQRGSSPSPLVNRMQMLGAYGNTTNNNNAYELSERRYSSLRAPSSSEGWEHQQPATVHGYQMKSYVDNLAKERLEALQSRGEIPTSRSMALGTLSYTQQLALALKQKSQNGLTPGPAPGFENFAGSRSISRQSERSYYGVPSSGNTDTVGAAVANEKKYSSMPDISGLSMSARNMHLPNNKSGYWDPSSGGGGYGASYGRLSNESSLYSNLGSRVGVPSTYDDISQSRGGYRDAYSLPQSATTGTGSLWSRQPFEQFGVAERNGAVGEELRNRSNPINIDNNASSNVDAEAKLLQSFRHCILKLIKLEGSEWLFGQSDGVDEELIDRVAAREKFIYEAEAREINQVGHMGEPLISSVPNCGDGCVWRADLIVSFGVWCIHRVLDLSLMESRPELWGKYTYVLNRLQGVIDPAFSKLRTPMTPCFCLQIPASHQRASPTSANGMLPPAAKPAKGKCTTAVTLLDLIKDVEMAISCRKGRTGTAAGDVAFPKGKENLASVLKRYKRRLSNKPVGMNQDGPGSRKNVTAYGSLG | binds | 
EIN2N:YFP^C fusion protein (domain or fragment, UniProt Q9S814 1-453) MEAEIVNVRPQLGFIQRMVPALLPVLLVSVGYIDPGKWVANIEGGARFGYDLVAITLLFNFAAILCQYVAARISVVTGKHLAQICNEEYDKWTCMFLGIQAEFSAILLDLTMVVGVAHALNLLFGVELSTGVFLAAMDAFLFPVFASFLENGMANTVSIYSAGLVLLLYVSGVLLSQSEIPLSMNGVLTRLNGESAFALMGLLGASIVPHNFYIHSYFAGESTSSSDVDKSSLCQDHLFAIFGVFSGLSLVNYVLMNAAANVFHSTGLVVLTFHDALSLMEQVFMSPLIPVVFLMLLFFSSQITALAWAFGGEVVLHDFLKIEIPAWLHRATIRILAVAPALYCVWTSGADGIYQLLIFTQVLVAMMLPCSVIPLFRIASSRQIMGVHKIPQVGEFLALTTFLGFLGLNVVFVVEMVFGSSDWAGGLRWNTVMGTSIQYTTLLVSSCASLCLI |  | no binding

Reference: PMC10217940
